Several values for one entry are separate records, joined by “and”; a condition that tells them apart may be missing. Identical values can stand only once.

The series is described as follows: Spectral characteristics of fluorescent sensors (excitation and emission spectra). The series is classed as physicochemical. As to conditions: 10 μM sensor in 100 mM KPi, pH7.4. How it is done: The fluorescent sensors that prepared above were dissolved in assay buffer (100 mM KPi, pH7.4) to formulate fluorescent sensor solutions to a final concentration of 10 μM. Then their absorption spectra were measured using a Multi-functional Fluorescence Microplate Reader (Synergy2, Biotek) (FIG. 3A).
Their excitation and emission spectra were determined using a fluorescence spectrophotometer (Cary Eclipse Fluorescence spectrophotometer, Varian) (FIG. 3B).

B1: F-rex1: NADH fluorescent sensor from pRSETb-ydiH-cpYFP-ydiH(D2), Bacillus subtilis YdiH fused with cpYFP, SEQ ID NO: 4 (protein)
chain: MRGSHHHHHHGMASMTGGQQMGRDLYDDDDKDPMNKDQSKIPQATAKRLPLYYRFLKNLHASGKQRVSSAELSDAVKVDSATIRRDFSYFGALGKKGYGYNVDYLLSFFRKTLDQDEMTDVILIGVGNLGTAFLHYNFTKNNNTKISMAFDINESKIGTEVGGVPVYNLDDLEQHVKDESVAILTVPAVAAQSITDRLVALGIKGILNFTPARLNVPEHIRIHHIDLAVELQSLVYFLKHYSVLEEIETSYNSDNVYIMADKQKNGIKANFKIRHNVEDGSVQLADHYQQNTPIGDGPVLLPDNHYLSFQSVLSKDPNEKRDHMVLLEFVTAAGITLGMDELYNVDGGSGGTGSKGEELFTGVVPILVELDGDVNGHKFSVSGEGEGDATYGKLTLKLICTTGKLPVPWPTLVTTLGYGLKCFARYPDHMKQHDFFKSAMPEGYVQERTIFFKDDGNYKTRAEVKFEGDTLVNRIELKGIGFKEDGNILGHKLEYNGTMTDVILIGVGNLGTAFLHYNFTKNNNTKISMAFDINESKIGTEVGGVPVYNLDDLEQHVKDESVAILTVPAVAAQSITDRLVALGIKGILNFTPARLNVPEHIRIHHIDLAVELQSLVYFLKHYSVLEEIE
modifications: synthetic fluorescent sensor
Consider B1, for which the emission peak stood at 521 nm; the excitation peaks was 400 nm and 490 nm; the “intensity of the latter excitation peak relative to the former” value is on record as “five times”.

The values above are taken from patent US9945860B2, “Nicotinamide adenine dinucleotide indicators, methods of preparation and application thereof” (East China University of Science and Technology, priority 2011, dated 2018).
